In PMC4336329 (PLoS ONE, 2015):
About 2,200 (0.71%) of roughly 310,000 compounds showed an effect of 50% or more. The effect is printed as a negative number. The list shows a part of the results.

molecular target: human ether-à-go-go-related gene (hERG) potassium channel (human, UniProt Q12809); assay: primary screen, population patch clamp on CHO cells stably expressing hERG
Sequence (Q12809 whole entry, looked up): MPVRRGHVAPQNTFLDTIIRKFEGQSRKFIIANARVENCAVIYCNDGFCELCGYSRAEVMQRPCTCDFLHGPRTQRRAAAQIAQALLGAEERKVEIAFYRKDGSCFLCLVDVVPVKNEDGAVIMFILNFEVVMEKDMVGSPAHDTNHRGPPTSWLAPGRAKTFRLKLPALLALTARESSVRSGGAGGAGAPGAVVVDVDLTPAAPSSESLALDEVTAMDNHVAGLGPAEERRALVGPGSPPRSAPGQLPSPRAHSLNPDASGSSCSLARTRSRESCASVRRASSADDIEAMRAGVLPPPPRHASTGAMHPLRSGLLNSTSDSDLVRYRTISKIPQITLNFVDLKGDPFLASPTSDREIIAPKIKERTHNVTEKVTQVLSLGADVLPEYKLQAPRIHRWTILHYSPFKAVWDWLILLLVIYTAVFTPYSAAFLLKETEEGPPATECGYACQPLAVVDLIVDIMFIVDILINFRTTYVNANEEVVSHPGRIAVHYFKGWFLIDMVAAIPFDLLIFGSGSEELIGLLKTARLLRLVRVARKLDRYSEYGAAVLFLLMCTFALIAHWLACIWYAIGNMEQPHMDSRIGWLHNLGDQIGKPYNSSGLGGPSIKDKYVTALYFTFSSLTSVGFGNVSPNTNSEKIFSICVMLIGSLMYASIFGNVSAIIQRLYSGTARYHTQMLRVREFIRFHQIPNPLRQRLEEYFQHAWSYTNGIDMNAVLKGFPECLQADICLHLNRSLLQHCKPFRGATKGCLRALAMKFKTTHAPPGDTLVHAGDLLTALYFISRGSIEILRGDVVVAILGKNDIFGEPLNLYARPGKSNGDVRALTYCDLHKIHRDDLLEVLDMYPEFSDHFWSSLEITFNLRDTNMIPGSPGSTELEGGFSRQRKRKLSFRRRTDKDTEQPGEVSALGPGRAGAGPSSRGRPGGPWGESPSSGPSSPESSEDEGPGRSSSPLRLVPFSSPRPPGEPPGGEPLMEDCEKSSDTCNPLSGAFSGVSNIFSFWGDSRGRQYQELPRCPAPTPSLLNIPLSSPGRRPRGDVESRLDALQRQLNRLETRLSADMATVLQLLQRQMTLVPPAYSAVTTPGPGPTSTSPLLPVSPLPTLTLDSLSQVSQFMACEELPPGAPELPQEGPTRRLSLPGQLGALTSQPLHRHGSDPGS

Compound | hERG current change (%, negative = inhibition) at 1uM [%]
COc1ccc(C(=O)NNC(=O)c2cc(C)[nH]n2)cc1 | 10.6
S=c1[nH]c(-c2ccccc2)cn1-c1ccccc1 | 14.8
COC(=O)c1ccc(C2C(Oc3ccc(OC)cc3)C(=O)N2CCc2ccc(OC)c(OC)c2)cc1 (stereo not shown) | 5.41
CC(=O)Nc1ccc(S(=O)(=O)NC2C3(C)CCC(C3)C2(C)C)cc1 (stereo not shown) | 12.6
CC(NC(=O)[C@H](C)NC(=O)N1CCn2c1nc1ccccc12)c1ccccc1 (stereo partly shown) | 9.09
O=C(CN(C(=O)c1csnn1)c1ccccc1)NCCc1ccccc1 | 9.21
CN(C)CCCN1C(=O)CSC1c1ccc([N+](=O)[O-])cc1.Cl (stereo not shown) | -11.4
CC(=O)N1c2ccccc2Sc2ccccc21 | 12.6
CCOC(=O)Cn1cnc2c(nnn2Cc2ccc(Cl)cc2)c1=O | 10.8
CC1(C)CC2CC(C)(CN2C(=O)COC(=O)c2cccc(O)c2)C1 (stereo not shown) | 9.01
Cn1c(C(=O)N2CCN(c3ncccn3)CC2)cc2c(=O)n(C)c3ccccc3c21 | 5.3
CC(C)(C)c1ccc(C(=O)NCCC(=O)N2CCC3(CC2)NCCc2[nH]cnc23)cc1 | 18.3
Cn1c(CNC(=O)CCNC(=O)c2cccc(Br)c2)cc(=O)n(C)c1=O | 9.17
COc1ccc(NC2=C(c3ccc(OC)cc3)C(=O)c3ccccc32)cc1 | -0.121
COc1ccccc1NC(=S)Nc1ccc2cn[nH]c2c1 | 3.6
Nc1ccn(CC(=O)NCc2ccccn2)c(=O)n1 | 3.14
O=C(CCC(=O)N(CC(=O)NC1CCCC1)C1CCCCC1)Nc1ccccn1 | 4.9
O=C1NC(=O)N(Cc2ccccc2)C(=O)/C1=C\c1ccco1 | -5.3
CCN(CC(=O)N1CCCC1)S(=O)(=O)c1ccccc1 | 16.4
Clc1ccc(CNCCc2ccc3c(c2)OCO3)cc1.O=C(O)C(=O)O | -16.4
CCOc1ccc(CNC(=O)CCC(=O)n2ncc3ccc(Cl)cc32)cc1 | 2.78
CC(=O)c1cccc(NC(=O)Nc2ccccc2)c1 | 15.7

Compound | hERG current change (%, negative = inhibition) at 1uM [%]
CCN1CCN(C(=O)c2ccc(Cl)c(S(=O)(=O)N3CCOCC3)c2)CC1 | 6.75
COC(=O)c1c(NC(=O)c2c(-c3ccccc3Cl)noc2C)sc2c1CCC2 | 7.12
O=Cc1cc([N+](=O)[O-])ccc1N1CCOCC1 | 5.17
Cc1ccc2cc(C#N)c(NCCNC(=S)NCCCN3CCOCC3)nc2c1 | -5.49
CC(=O)CSc1cc(-c2ccccc2)nc2ncnn12 | 13.3
COc1cccc(N2CCN(S(=O)(=O)c3c(C)[nH]c(C)c3C(=O)N3CCCCC3)CC2)c1 | 15.2
CC(C)N(Cc1nccn1C)C(=O)c1cc(COc2cccc(C(F)(F)F)c2)on1 | -0.863
Cc1ccc(CNC(=O)c2cc(S(=O)(=O)N3CCCC3)cn2C)cc1 | 11.4
Cc1ccccc1OCCC(=O)Nc1ccc(F)c(Cl)c1 | 13.7
Cc1cc2nnc(SCC(=O)NCc3cccs3)n2c2ccccc12 | -2.94
CC(C)(C)C(=O)Nc1sc(-c2ccccc2)cc1C(=O)O | 14.9
O=C(Nc1ccc(-c2nc3ccccc3o2)cc1)c1ccc(N2CCOCC2)c([N+](=O)[O-])c1 | -0.433
N/N=C/C(=N\Nc1ccc(Cl)cc1)C(=O)c1ccncc1 | 9.72
COc1ccc(Cl)cc1NC(=S)NCc1ccc(S(N)(=O)=O)cc1 | 14.4
CCCCCCCNC(=O)C1(CC2CC(c3ccc(Cl)cc3)=NO2)CCNCC1 (stereo not shown) | -24.3
COc1ccc(C2=NN(C(C)=O)C(c3cccs3)C2)cc1OC (stereo not shown) | 11.7
O=C(NCc1ccc(Cl)cc1)c1ccc(S(=O)(=O)N2CCCCC2)cc1 | 15.4
CC(=O)OC1C2CCCC1C(N1CCCC1)CC2.Cl (stereo not shown) | 0.62
CC(=O)Oc1ccc(C(=O)Nc2ccccc2C(=O)Nc2cccc(C(=O)O)c2)cc1 | 15
COc1ccc(C(=O)NC(NC(=O)c2ccc(OC)c(OC)c2)c2ccccc2F)cc1OC | 5.21
COc1ccccc1CN(C)c1nnnn1-c1ccccc1 | 7.13
Cc1ccc(S(=O)(=O)NCC(c2ccc3c(c2)OCO3)N2CCOCC2)cc1 (stereo not shown) | 7.54

Compound | hERG current change (%, negative = inhibition) at 1uM [%]
CCN(CC)c1ccc(NC(=O)c2cnn(CC)c2)cc1 | -1.75
O=C(CCC(=O)OCC(=O)c1ccc(C(F)(F)F)cc1)OCC(=O)c1ccc(C(F)(F)F)cc1 | 11.4
COc1ccccc1CNC(=O)CCCC(=O)n1ncc2cc(C)ccc21 | 7.25
CN(C)c1ccnc(Nc2ccc(O)cc2)c1C#N | 16.3
CCc1ccc(CCC(=O)Nc2ccc(S(N)(=O)=O)cc2)o1 | 5.31
COc1cc(-c2nnc(SC/C=C/c3ccccc3)n2N)cc(OC)c1OC | 16.5
O=C(Cc1ccccc1Cl)N1CCN(c2ncccn2)CC1 | 3.97
Cc1ccc(-n2nnnc2SCc2nnc(-c3ccccc3Br)o2)cc1 | 7.79
CC1(C)CSC(Nc2ccc(F)c(Cl)c2)=N1 | 1.51
COc1ccc(CN2CCNC(=O)C2CC(=O)NCCCC2CCCC2)c(F)c1 (stereo not shown) | 3.19
O/N=C1\CCC2CN(C3CCCCC3)CC2C1 (stereo not shown) | -4.87
O=Cc1cn(Cc2c(F)cccc2Cl)c2ccccc12 | 5.7
CCN(C(=O)COC(=O)c1ccc(OCc2c(C)noc2C)cc1)c1ccccc1 | 12.1
N#CC1=C2SCN(Cc3ccco3)CN2C(=O)CC1c1ccccc1F (stereo not shown) | -0.638
Cn1c(SCCOc2ccc(F)cc2)nnc1-c1ccncc1 | -8.63
O=C(CN(Cc1ccco1)C(=O)c1ccc([N+](=O)[O-])cc1)Nc1ccccc1C(F)(F)F | -0.169
CC(=O)NC(c1ccco1)c1ccc2cccnc2c1O (stereo not shown) | -3.48
c1ccc(-c2nnc(N3CCN(c4ccccn4)CC3)c3ccccc23)cc1 | -6.02
COc1ccccc1-c1nc2ccccc2nc1-c1ccccc1OC | 11.8
Cc1cccc(N2CCN(C(=O)CSc3ccc4c(c3)OCCO4)CC2)c1C | 3.25
CSC1=C(C#N)C(c2ccc(C)cc2)C2=C(CCCC2=O)N1 (stereo not shown) | 8.17
CCCS(=O)(=O)N1CCN(c2ccccn2)CC1 | 10.2

Compound | hERG current change (%, negative = inhibition) at 1uM [%]
N#Cc1cc2cc3c(cc2nc1SCC(=O)N1CCOCC1)OCCO3 | 9.02
CC1=C2C(=O)OC(c3ccoc3)C2(C)CCC1 (stereo not shown) | 1.19
N#CCc1ccc(OC(=O)Nc2ccccc2)cc1 | 0.885
COc1ccccc1/C=C/C(=O)Nc1cccc(S(=O)(=O)NC2=NCCCCC2)c1 | 13.1
COc1cc2[nH]c(=S)n(CCN3CCOCC3)c(=O)c2cc1OC | 6.18
O=C(Nc1cccc(-c2csc(Nc3cccc(C(F)(F)F)c3)n2)c1)c1cc([N+](=O)[O-])cc(C(F)(F)F)c1 | -1.44
CCc1ccc(C2CC(c3ccccc3)n3ncnc3N2)cc1 (stereo not shown) | -0.803
CCC1CCCCN1C(=S)Nc1cccc(S(=O)(=O)N(C)C)c1 (stereo not shown) | 6.94
O=C(N[C@@H](Cc1ccccc1)C(=O)CCl)OCc1ccccc1 | 16.3
COc1ccc(OC)c(-c2cc(C(=O)N3CCOCC3)no2)c1 | 10.6
COc1ccc(NC(=O)COC(=O)c2ccc(NS(=O)(=O)/C=C/c3ccccc3)cc2)cc1 | 14.2
CCN(CCNS(=O)(=O)c1ccc2c(c1)oc(=O)n2C)c1ccccc1 | -0.968
Cc1nc2c(cnn2-c2ccccc2Cl)c(=O)n1-c1ccc(C(C)C)cc1 | 17.3
CCOC(=O)c1c(NC(=O)CCC(=O)N(CC)CC)sc2c1CC(C)(C)OC2 | 6.66
CC1CCCCC12NC(=O)N(CC(=O)NC(=O)Nc1ccc3c(c1)OCCO3)C2=O (stereo not shown) | 8.38
Nc1nc(O)c(Sc2ccccc2[N+](=O)[O-])c(=O)[nH]1 | 14.8
Cc1ccc(C(=O)NCC(=O)N2CCCC(C(F)(F)F)C2)s1 (stereo not shown) | 8.18
CCOc1cc(/C=C2\CCn3c2nc2cc(Cl)ccc2c3=O)ccc1O | 17.6
O=C(CCCCn1c(=O)c2ccccc2n(CC(=O)Nc2ccccc2)c1=O)NCc1ccco1 | 14.7
C=CCN1c2ccccc2[C@]23C[C@@H](C(=O)OC)N(C(=O)c4cc(C)oc4C)C2=NC(C(=O)OC)=C(C(=O)OC)[C@H]13 | 3.9
Cc1ccc(C#N)c(SCC(=O)Nc2nccs2)n1 | 12.7
O=C(O)/C(CC(=O)c1ccc(Cl)cc1)=N/Nc1ccc([N+](=O)[O-])cc1[N+](=O)[O-] | 11.4
